# This is one part of the list.
# B1: Surfactant Protein D (Human); Neck + Carbohydrate Recognition Domain (NCRD) (Homo sapiens) (protein)
# chain: MLLFLLSALVLLTQPLGYLEAEMKTYSHRTMPSACTLVMCSSVESGLPGRDRDGREGPRGEKGDPGLPGAAGQAGMPGQAGPVGPKGDNGSVGEPGPKGDTGPSGPPGPPGVPGPAGREGALGKQGNIGPQGKPGPKGEAGPKGEVGAPGMQGSAGARGLAGPKGERGVPGERGVPGNTGAAGSAGAMGPQGSPGARGPPGLKGDKGIPGDKGAKGESGLPDVASLRQQVEALQGQVQHLQAAFSQYKKVELFPNGQSVGEKIFKTAQFVKPFTEAQLLCTQAGGQLASPRSAAENAALQQLVVAKNEAAFLSMTDSKTEGKFTYPTGESLVYSNWAPGEPNDDGGSEDCVEIFTNGKWNDIACGEKRLVVCEF
# How the values were obtained:
# Experiment in all cases: glycan array binding signal (z-score within array); higher = stronger binding
# Conditions in all cases: glycan notation: IUPAC condensed, linker removed; mutation: R343I
# Gal(b1-3)GlcNAc = molecular target: Gal(b1-3)GlcNAc
# Summary of the method: (§1)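 Glycan array binding is given as a within-array Z-score, which can be read as non-binding when negative. The arrays, 3228 of them, came from the Consortium for Functional Glycomics database and were retained only where the protein sequence was available. Z-scores were averaged across arrays of the same protein sequence at different concentrations or buffers and across linkers.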
# [1] = molecular target: Gal(b1-3)GlcNAc(b1-2)Man(a1-3)[Gal(b1-3)GlcNAc(b1-2)Man(a1-6)]Man(b1-4)GlcNAc(b1-4)GlcNAc
# Summary of the method: as §1
# [2] = molecular target: Gal(b1-3)GlcNAc(b1-3)Gal(b1-3)GlcNAc
# Summary of the method: as §1
# [3] = molecular target: Gal(b1-3)GlcNAc(b1-3)Gal(b1-4)Glc
# Summary of the method: as §1
# [4] = molecular target: Gal(b1-3)GlcNAc(b1-3)Gal(b1-4)GlcNAc
# Summary of the method: as §1
# [5] = molecular target: Gal(b1-3)[Fuc(a1-4)]GlcNAc
# Summary of the method: as §1
# [6] = molecular target: Gal(b1-3)[Fuc(a1-4)]GlcNAc(b1-3)Gal(b1-3)[Fuc(a1-4)]GlcNAc
# Summary of the method: as §1
# [7] = molecular target: Gal(b1-3)[Fuc(a1-4)]GlcNAc(b1-3)Gal(b1-4)GlcNAc
# Summary of the method: as §1
# [8] = molecular target: Gal(b1-3)[Fuc(a1-4)]GlcNAc(b1-3)Gal(b1-4)[Fuc(a1-3)]GlcNAc
# Summary of the method: as §1
# [9] = molecular target: Gal(b1-3)[GlcNAc(b1-6)]GalNAc
# Summary of the method: as §1
# [10] = molecular target: Gal(b1-3)[Neu5Ac(a2-6)]GalNAc
# Summary of the method: as §1
# [11] = molecular target: Gal(b1-3)[Neu5Ac(a2-6)]GlcNAc(b1-6)Gal(b1-4)Glc
# Summary of the method: as §1
# [12] = molecular target: Gal(b1-3)[Neu5Ac(b2-6)]GalNAc
# Summary of the method: as §1
# [13] = molecular target: Gal(b1-4)GalNAc(a1-3)[Fuc(a1-2)]Gal(b1-4)GlcNAc
# Summary of the method: as §1
# [14] = molecular target: Gal(b1-4)GalNAc(b1-3)[Fuc(a1-2)]Gal(b1-4)GlcNAc
# Summary of the method: as §1
# Gal(b1-4)Glc = molecular target: Gal(b1-4)Glc
# Summary of the method: as §1
# Gal(b1-4)Glc6S = molecular target: Gal(b1-4)Glc6S
# Summary of the method: as §1
# Gal(b1-4)GlcNAc = molecular target: Gal(b1-4)GlcNAc
# Summary of the method: as §1
# [15] = molecular target: Gal(b1-4)GlcNAc(a1-6)Gal(b1-4)GlcNAc
# Summary of the method: as §1
# [16] = molecular target: Gal(b1-4)GlcNAc(b1-2)Man(a1-3)[Gal(b1-4)GlcNAc(b1-2)Man(a1-6)]Man(b1-4)GlcNAc(b1-4)GlcNAc
# Summary of the method: as §1
# [17] = molecular target: Gal(b1-4)GlcNAc(b1-3)Gal(b1-3)GlcNAc
# Summary of the method: as §1
# [18] = molecular target: Gal(b1-4)GlcNAc(b1-3)Gal(b1-4)Glc
# Summary of the method: as §1
# [19] = molecular target: Gal(b1-4)GlcNAc(b1-3)Gal(b1-4)GlcNAc
# Summary of the method: as §1
# [20] = molecular target: Gal(b1-4)GlcNAc(b1-3)Gal(b1-4)GlcNAc(b1-3)Gal(b1-4)GlcNAc
# Summary of the method: as §1
# [21] = molecular target: Gal(b1-4)GlcNAc(b1-3)Gal(b1-4)[Fuc(a1-3)]GlcNAc(b1-3)Gal(b1-4)[Fuc(a1-3)]GlcNAc
# Summary of the method: as §1
# [22] = molecular target: Gal(b1-4)GlcNAc(b1-3)GalNAc
# Summary of the method: as §1
# [23] = molecular target: Gal(b1-4)GlcNAc(b1-3)[Gal(b1-4)GlcNAc(b1-6)]Gal(b1-4)GlcNAc
# Summary of the method: as §1
# [24] = molecular target: Gal(b1-4)GlcNAc(b1-3)[GlcNAc(b1-6)]Gal(b1-4)GlcNAc
# Summary of the method: as §1
# [25] = molecular target: Gal(b1-4)GlcNAc(b1-6)Gal(b1-4)GlcNAc
# Summary of the method: as §1
# [26] = molecular target: Gal(b1-4)GlcNAc(b1-6)Gal(b1-4)GlcNAc(b1-6)GalNAc
# Summary of the method: as §1
# [27] = molecular target: Gal(b1-4)GlcNAc(b1-6)GalNAc
# Summary of the method: as §1
# [28] = molecular target: Gal(b1-4)GlcNAc(b1-6)[Gal(b1-3)]GalNAc
# Summary of the method: as §1
# Gal3S(b1-3)GalNAc = molecular target: Gal3S(b1-3)GalNAc
# Summary of the method: as §1
# Gal3S(b1-3)GlcNAc = molecular target: Gal3S(b1-3)GlcNAc
# Summary of the method: as §1
# [29] = molecular target: Gal3S(b1-3)[Fuc(a1-4)]GlcNAc
# Summary of the method: as §1
# Gal3S(b1-4)Glc = molecular target: Gal3S(b1-4)Glc
# Summary of the method: as §1
# Gal3S(b1-4)Glc6S = molecular target: Gal3S(b1-4)Glc6S
# Summary of the method: as §1
# Gal3S(b1-4)GlcNAc = molecular target: Gal3S(b1-4)GlcNAc
# Summary of the method: as §1
binder,measurement,setting,value
B1,glycan array binding signal (z-score),Gal(b1-3)GlcNAc,-0.272
same,glycan array binding signal (z-score),[1],-0.275
same,glycan array binding signal (z-score),[2],-0.269
same,glycan array binding signal (z-score),[3],-0.274
same,glycan array binding signal (z-score),[4],-0.279
same,glycan array binding signal (z-score),[5],-0.264
same,glycan array binding signal (z-score),[6],-0.07
same,glycan array binding signal (z-score),[7],-0.253
same,glycan array binding signal (z-score),[8],-0.273
same,glycan array binding signal (z-score),[9],-0.274
same,glycan array binding signal (z-score),[10],-0.268
same,glycan array binding signal (z-score),[11],-0.278
same,glycan array binding signal (z-score),[12],-0.276
same,glycan array binding signal (z-score),[13],-0.263
same,glycan array binding signal (z-score),[14],-0.263
same,glycan array binding signal (z-score),Gal(b1-4)Glc,-0.272
same,glycan array binding signal (z-score),Gal(b1-4)Glc6S,-0.26
same,glycan array binding signal (z-score),Gal(b1-4)GlcNAc,-0.265
same,glycan array binding signal (z-score),[15],-0.275
same,glycan array binding signal (z-score),[16],-0.269
same,glycan array binding signal (z-score),[17],-0.275
same,glycan array binding signal (z-score),[18],-0.274
same,glycan array binding signal (z-score),[19],-0.266
same,glycan array binding signal (z-score),[20],-0.277
same,glycan array binding signal (z-score),[21],-0.23
same,glycan array binding signal (z-score),[22],-0.26
same,glycan array binding signal (z-score),[23],-0.274
same,glycan array binding signal (z-score),[24],-0.273
same,glycan array binding signal (z-score),[25],-0.278
same,glycan array binding signal (z-score),[26],-0.274
same,glycan array binding signal (z-score),[27],-0.275
same,glycan array binding signal (z-score),[28],-0.275
same,glycan array binding signal (z-score),Gal3S(b1-3)GalNAc,-0.268
same,glycan array binding signal (z-score),Gal3S(b1-3)GlcNAc,-0.269
same,glycan array binding signal (z-score),[29],-0.267
same,glycan array binding signal (z-score),Gal3S(b1-4)Glc,-0.246
same,glycan array binding signal (z-score),Gal3S(b1-4)Glc6S,-0.263
same,glycan array binding signal (z-score),Gal3S(b1-4)GlcNAc,-0.278
